# Reference: PubChem BioAssay AID1745853 (National Center for Advancing Translational Sciences (NCATS), 2022)
# Some of the results follow. Shown are side measurements of this screen, not its main read-out; they come without a call.
# Experiments:
# Assay in all cases: Primary Screen for Target Class Profiling of Small Molecule Inhibitors of Methyltransferases
# [1] = molecular target: Glycine N-methyltransferase (Homo sapiens) (UniProt Q14749); settings: purified enzyme, MTase-Glo SAH luminescence; measured here: GNMT inhibition; at 40 µM; stronger effect = lower value
# Method in brief: (§1)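 Each enzyme was assayed with SAM and its substrate. SAH formation detected by MTase-Glo luminescence; single-point 40 uM screen[…].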
# [2] = molecular target: Guanidinoacetate N-methyltransferase (Homo sapiens) (UniProt Q14353); settings: purified enzyme, MTase-Glo SAH luminescence; measured here: GAMT inhibition; at 40 µM; stronger effect = lower value
# Method in brief: as §1
# [3] = molecular target: Histamine N-methyltransferase (Homo sapiens) (UniProt P50135); settings: purified enzyme, MTase-Glo SAH luminescence; measured here: HNMT inhibition; at 40 µM; stronger effect = lower value
# Method in brief: as §1
# [4] = molecular target: Nicotinamide N-methyltransferase (Homo sapiens) (UniProt P40261); settings: purified enzyme, MTase-Glo SAH luminescence; measured here: NNMT inhibition; at 40 µM; stronger effect = lower value
# Method in brief: as §1
# [5] = molecular target: Phenylethanolamine N-methyltransferase (Homo sapiens) (UniProt P11086); settings: purified enzyme, MTase-Glo SAH luminescence; measured here: PNMT inhibition; at 40 µM; stronger effect = lower value
# Method in brief: as §1
# % is set by controls: 0 for no effect and ±100 for the full control effect.
Structure (SMILES),"activity change, negative = inhibition [1]","activity change, negative = inhibition [2]","activity change, negative = inhibition [3]","activity change, negative = inhibition [4]","activity change, negative = inhibition [5]"
CC(C)(C)c1cc2n(n1)CC(C)(C(=O)NC1CCCCCC1)N(Cc1ccc3c(c1)OCO3)C2=O (stereo not drawn),2.25%,2.68%,6.76%,-5.16%,-0.405%
CN1C(=O)c2cc(C(=O)NCc3ccc(F)cc3)nn2CC1(C)C(=O)NC1CCCC1 (stereo not drawn),0.314%,2.71%,-4.06%,2.75%,-1.87%
COC1CCN(CC2CCCCCN2)CC1 (stereo not drawn),-4.65%,-2.38%,0.965%,-2.51%,-15.1%
Cc1cccc(CC(=O)N2CCCCC2c2nc(C3CC3)n[nH]2)c1 (stereo not drawn),-4.05%,-11.5%,-5.92%,-7.55%,-8.32%
OC1(c2ccc(Cl)c(C(F)(F)F)c2)CCN(CCCC(c2ccc(F)cc2)c2ccc(F)cc2)CC1,3.81%,-6%,1.26%,-23.2%,-10.6%
CN(C)c1ccc(Nc2c3ccc(NC(=O)CCN4CCCC4)cc3nc3cc(NC(=O)CCN4CCCC4)ccc23)cc1,,-1.16%,,-52.3%,-33.3%
COC(=O)Cn1c(=O)oc2cc(S(=O)(=O)NCCc3cccs3)ccc21,-2.51%,0%,2.8%,-2.35%,-0.118%
COc1ncccc1-c1nccn2c(C3CN(Cc4ccccc4O)C3)ncc12,-6.98%,-6.74%,-86.6%,-17.6%,-9.23%
O=c1[nH]ccc2nc(-c3ccc(CN4CCC(c5nc(-c6ccccn6)n[nH]5)CC4)cc3)c(-c3ccccc3)cc12,-48.4%,-23.1%,-14.2%,-71.4%,-39.1%
CCCN1C(=O)c2cc(C(=O)N3CCN(c4ccccc4)CC3)nn2CC1(C)C(=O)NC1CCCC1 (stereo not drawn),-2.46%,2.03%,3.95%,-2.78%,-2.14%
Cc1cccc(NC(=O)Cn2nc3n(C(C)C)c(=O)c4ccc(C(=O)NCC(C)C)cc4n3c2=O)c1,-0.089%,3.73%,3.59%,2.32%,4.41%
CCC(C)NC(=O)c1ccc2c(=O)n(C(C)C)c3nn(CC(=O)Nc4cccc(Cl)c4)c(=O)n3c2c1 (stereo not drawn),4.11%,4.13%,4.19%,-0.36%,2.18%
Cn1c(=O)c2ccc(C(=O)NC3CCCC3)cc2n2c(=O)n(CC(=O)c3ccc(F)cc3)nc12,2.21%,4.79%,-0.813%,-3.58%,-0.325%
CCOC(=O)C1CCC(CNC(=O)N2CCn3cccc3C2C(C)C)CC1 (stereo not drawn),6.77%,1.38%,3.19%,1.25%,5.5%
O=C(c1cc(F)ccc1F)N1CCCCC1c1nc(-c2cnccn2)n[nH]1 (stereo not drawn),-1.5%,-0.998%,0.205%,-3.26%,0.767%
CCOc1ccc(CN2C(=O)c3c(C(=O)OC)ncn3CC2(C)C(=O)NC2CCCC2)cc1OC (stereo not drawn),1.94%,3.22%,6.39%,1.55%,1.59%
Cc1ccc(Cn2c(=O)c3ccccc3n3c(=O)n(CC(=O)Nc4ccccc4F)nc23)cc1,-0.767%,2.62%,2.34%,0.949%,1.17%
Cc1ccc(C(=O)Cn2nc3n(Cc4ccc(F)cc4)c(=O)c4ccccc4n3c2=O)cc1,7%,1.32%,11.4%,10.4%,8.92%
CCCn1c(=O)c2ccc(C(=O)NC(C)CC)cc2n2c(=O)n(Cc3ccccc3C)nc12 (stereo not drawn),1.35%,0%,6.52%,-0.223%,3.35%
CC1CCC(NC(=O)Cn2ccc3cc(S(=O)(=O)N4CCC(C)CC4)ccc32)CC1 (stereo not drawn),-0.903%,3.54%,-1.26%,-1.07%,-3.87%
Cc1ccc(C(=O)N(Cc2ccccc2)S(=O)(=O)c2ccc3c(c2)n(C)c(=O)n3C)cc1,-1.73%,0%,-9.01%,-3.35%,-1.33%
CC(=O)N1C[C@@H](NC(=O)Nc2ccc(F)cc2F)C[C@H]1C(=O)N[C@H](Cc1c[nH]c2ccccc12)C(N)=O,-0.575%,1.14%,-0.721%,1.17%,1.86%
COc1cccc(CN2C(=O)c3cc4occc4n3CC2(C)C(=O)NC2CCC(C)CC2)c1 (stereo not drawn),-3.49%,0%,2.36%,-22.7%,-0.936%
CCOC(=O)c1cc2n(n1)CC(C)(C(=O)NC1CCCCCC1)N(c1ccc3c(c1)OCO3)C2=O (stereo not drawn),4.05%,0%,4.6%,2.58%,4.54%
CC(=O)Nc1c2n(c3ccc(F)cc13)CC(C)(C(=O)NC1CCCC1)N(Cc1cccs1)C2=O (stereo not drawn),-12%,1.32%,-1.25%,-3.35%,-3.07%
O=S(=O)(NCCc1nc2ccccc2n1S(=O)(=O)c1ccccc1)c1ccccc1,1.42%,10.6%,3.42%,11.1%,1.21%
O=C(O)c1cc(O[C@@H]2O[C@H](CO[C@@H]3OC[C@@H](O)[C@H](O)[C@H]3O)[C@@H](O)[C@H](O)[C@H]2O)c2ccccc2c1O,-15.8%,-3.4%,5.28%,-14%,-41.1%
CCc1ccc(C2c3cccn3-c3sc4c(c3CN2C(=O)NCCCOC)CCCC4)cc1 (stereo not drawn),-2.99%,0%,7.2%,-10.2%,3.83%
COC(=O)[C@@H]1Cc2ncn(Cc3ccc(Cl)cc3)c2CN1CCCc1ccccc1,-16.8%,-6.43%,-33.1%,-61.6%,-17.9%
